Where a chain is given by its changes, count along the chain named. Names may count otherwise.
B1: ZZA4011, Z(boxA)-L2-Z(boxB)-ABD (designed binder)
chain: VDAKYAKEDWDAFWEIIWLPNLTDAQQRAFIYKLEDDPSQSSELLSEAKKLNDSQAPKGAPGGGGSTSVDAKYAKEAWLAEQEIWQLPNLTEAQFQAFILKLIDDPSQSSELLSEAKKLNDSQAPKASGSLAEAKEAANAELDSYGVSDFYKRLIDKAKTVEGVEALKDAILAALP
notes: Heterodimer of ZH01 and ZH31 with PP013
B2: ZAZ4057 (designed binder)
chain: AEAKYAKEDWDAFWEIIWLPNLTDAQQRAFIYKLEDDPSQSSELLSEAKKLNDSQAPKASGSLAEAKEAANAELDSYGVSDFYKRLIDKAKTVEGVEALKDAILAALPGTGGGGSAEAKYAKEDWDAFWEIIWLPNLTDAQQRAFIYKLEDDPSQSSELLSEAKKLNDSQAPK
B3: ZZA4054, Z(boxA)-L2-Z(boxA)-ABD (designed binder)
chain: AEAKYAKEDWDAFWEIIWLPNLTDAQQRAFIYKLEDDPSQSSELLSEAKKLNDSQAPKGAPGGGGSTSAEAKYAKEDWDAFWEIIWLPNLTDAQQRAFIYKLEDDPSQSSELLSEAKKLNDSQAPKASGSLAEAKEAANAELDSYGVSDFYKRLIDKAKTVEGVEALKDAILAALP
notes: Homodimer of ZH27 with PP013
B4: His6-tagged ZH 01, MGSSHHHHHHLQ-[ZH 01]-VD (designed binder)
chain: MGSSHHHHHHLQVDAKYAKEDWDAFWEIIWLPNLTDAQQRAFIYKLEDDPSQSSELLSEAKKLNDSQAPKVD
B5: His6-tagged ZH21 (ZH 01 D24A), MGSSHHHHHHLQ-[ZH21]-VD (designed binder)
chain: B4 chain with D36A
B6: His6-tagged ZH20 (ZH 01 W18A), MGSSHHHHHHLQ-[ZH20]-VD (designed binder)
chain: B4 chain with W30A
B7: His6-tagged ZH23 (ZH 01 Q27A), MGSSHHHHHHLQ-[ZH23]-VD (designed binder)
chain: B4 chain with Q39A
B8: His6-tagged ZH16 (ZH 01 D11A), MGSSHHHHHHLQ-[ZH16]-VD (designed binder)
chain: B4 chain with D23A
B9: His6-tagged ZH22 (ZH 01 A25S), MGSSHHHHHHLQ-[ZH22]-VD (designed binder)
chain: B4 chain with A37S
B10: His6-tagged ZH14 (ZH 01 D9A), MGSSHHHHHHLQ-[ZH14]-VD (designed binder)
chain: B4 chain with D21A

What follows are binders tested against T1, HMGB1(red), fully reduced form of full-length HMGB1 (HMGB1C23hC45hC106h) (rat, UniProt P63159 1-215, all cysteines reduced (C23h, C45h, C106h)) (assay: QCM (Attana A200); polypeptide captured on HSA, HMGB1(red) injected, 2 mM DTT; 1:1 or 1:2 model, relevant kd (most represented)).
T1 construct: Produced by HMGBiotech; also called HMGB1(reduced); b-HMGB1(red)
T1 sequence: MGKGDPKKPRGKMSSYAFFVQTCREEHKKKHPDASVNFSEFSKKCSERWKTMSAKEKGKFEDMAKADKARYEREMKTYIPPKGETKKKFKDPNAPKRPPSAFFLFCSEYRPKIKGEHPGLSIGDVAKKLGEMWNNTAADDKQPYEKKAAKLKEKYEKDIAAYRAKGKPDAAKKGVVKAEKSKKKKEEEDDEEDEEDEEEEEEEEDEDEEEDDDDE
Description: (§1) Binding analysis: The Attana A200® biosensor was used to characterize interactions between the dimeric polypeptides (SEQ ID NO:38-48) and HMGB1(red) under reducing conditions and/or HMGB1(disulfide) under non-reducing conditions. The monomeric ZA3812 (SEQ ID NO:35) was included for comparison. The experiment was performed as a capture assay, in which HSA was immobilized on Attana's sensor chip Low-NonSpecific-Binding (LNB). Immobilization was performed using amine coupling. The instrument has two sensor surfaces and HSA was immobilized on both surfaces. Around 110 Hz of HSA was stably immobilized on the surfaces.
(§2) In the kinetic experiment, HBS-EP+/−2 mM DTT was used as running buffer and the flow rate was 25 μl/min at 22° C. In each cycle, one polypeptide was tested against one concentration of HMGB1. […] The analyte HMGB1(reduced) was diluted in HBS-EP+2 mM DTT within a concentration range of 1.33 to 21.4 μg/ml, and the analyte HMGB1(disulfide) was diluted in HBS-EP buffer within a concentration range of 0.62 to 10 μg/ml. Both analytes were subsequently injected for 84 s over both channel A and B, where channel B was used as a blank surface for curve subtraction. Buffer injections were also made for surface subtractions. After dissociation, the surfaces were regenerated with a 30 s injection of 100 mM HCl followed by a 30 s injection of 20 mM NaOH. Data was collected by Attester Software and subsequently processed in the Evaluation Software. To calculate the kinetic parameters (kₐ and kd) and affinity constant (KD), the experimental data were fitted using a 1:1 or a 1:2 binding model.
(§3) Binding analysis of dimeric polypeptides targeting HMGB1: The interactions of a set of dimeric polypeptides, as well as one monomeric polypeptide, with HMGB1(reduced) and/or HMGB1(disulfide) were analyzed using an Attana A200® biosensor instrument by injecting various concentrations of HMGB1 over a surface containing captured polypeptides in fusion with ABD bound by immobilized HSA.

Binder | koff [s⁻¹]
B1 | 0.00049
B2 | 0.0096
B3 | 0.013

What follows are binders tested against T2, human serum albumin (HSA) (human, UniProt P02768 25-609) (assay: QCM (Attana A200); capture on immobilized HSA).
T2 construct: Immobilized on sensor chips to capture ABD (PP013) fusions
T2 sequence (P02768 25-609 limits assumed): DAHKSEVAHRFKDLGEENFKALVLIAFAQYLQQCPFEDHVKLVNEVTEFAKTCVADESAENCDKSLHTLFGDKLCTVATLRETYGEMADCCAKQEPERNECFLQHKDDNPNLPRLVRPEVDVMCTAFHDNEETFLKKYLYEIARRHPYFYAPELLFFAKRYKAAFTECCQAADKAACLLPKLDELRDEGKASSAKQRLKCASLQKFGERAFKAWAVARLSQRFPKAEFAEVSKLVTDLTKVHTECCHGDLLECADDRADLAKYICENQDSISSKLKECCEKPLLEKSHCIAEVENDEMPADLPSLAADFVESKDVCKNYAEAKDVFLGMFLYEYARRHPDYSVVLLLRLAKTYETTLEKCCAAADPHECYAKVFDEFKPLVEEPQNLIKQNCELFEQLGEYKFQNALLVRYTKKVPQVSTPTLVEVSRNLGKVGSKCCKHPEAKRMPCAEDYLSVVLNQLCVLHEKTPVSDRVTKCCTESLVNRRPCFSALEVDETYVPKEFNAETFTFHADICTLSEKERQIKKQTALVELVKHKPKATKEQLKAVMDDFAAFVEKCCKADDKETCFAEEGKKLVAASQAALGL

Binder | binding result
B1 | binds
B2 | binds
B3 | binds

Each binder was assayed against T3, HMGB1(disulfide), disulfide linked form of full-length HMGB1 (HMGB1C23-C45C106h) (rat, UniProt P63159 1-215, disulfide C23-C45; C106 reduced) (assay: QCM (Attana A200); polypeptide captured on HSA, HMGB1(disulfide) injected; 1:1 or 1:2 model, relevant kd (most represented)).
T3 construct: unlabelled in Biacore and Attana; also called b-HMGB1(disulfide)
T3 sequence: T1 sequence
Description: as §1, §2, §3

Binder | koff [s⁻¹]
B1 | 0.0011
B2 | 0.00065
B3 | 0.00063

These binders were tested against T4, boxA(disulfide), disulfide linked form of A-box domain of HMGB1 (human, UniProt P09429 1-89, disulfide C23-C45) (assay: SPR (Biacore 2000); target immobilized on CM5, His6-Z variant injected 50-1350 nM; 1:1 model).
T4 construct: also called b-boxA(disulfide)
T4 sequence: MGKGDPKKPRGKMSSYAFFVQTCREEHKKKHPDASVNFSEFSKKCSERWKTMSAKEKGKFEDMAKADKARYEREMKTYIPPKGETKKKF
Description: (§4) Binding analysis of mutated Z variants: A binding analysis was performed using a Biacore 2000 instrument. All alanine mutated Z variants, together with the original Z variant ZH 01, were analyzed against GST-boxA(red), HMGB1(red), boxA(disulfide) and HMGB1(disulfide). The immobilizations and Biacore analyses were performed essentially as described in Example 3. However, in these analyses, the different targets were directly coupled to separate flow cells of different CM5 chip surfaces and a flow rate of 30 μl/min was used. The ligand immobilization levels on the surfaces were 1410 RU for GST-boxA(red), 1380 RU for HMGB1(red), 540 RU for boxA(disulfide) and 2900 RU for HMGB1(disulfide). The analytes, i.e. the Z variants, were each diluted in HBS-EP buffer (or in HBS-EP+2 mM DTT for use in analysis with reduced targets GST-boxA(red) and HMGB1(red)), within a concentration range of 50 to 1350 nM and injected for 3 min, followed by dissociation in running buffer for 35 min. No regeneration buffer was used in the analyses. Instead, the dissociation time was enough for all binders to dissociate from the chip surfaces. HBS-EP was used as running buffer for targets boxA(disulfide) and HMGB1(disulfide) while HBS-EP+2 mM DTT was used for reduced targets GST-boxA(red) and HMGB1(red). The dissociation constants were calculated as in Example 3.
(§5) Binding analysis of mutated Z variants: The interaction of HMGB1 with ZH 01 and the 13 mutated variants thereof was analyzed in a Biacore instrument by injecting various concentrations of the Z variants over surfaces containing immobilized GST-boxA(red), HMGB1(red), boxA(disulfide) and HMGB1(disulfide), respectively. A summary of the dissociation constants from the experiments, which were obtained by using a 1:1 interaction model, is given in Table 12.

Binder | Kd [µM]
B4 | 0.38
B5 | 1.5
B6 | 50
B7 | 0.79
B8 | 0.66
B9 | 0.33
B10 | 0.77

Each binder was assayed against T1, HMGB1(red), fully reduced form of … in the same assay as above.
Description: as §4, §5

Binder | Kd [µM]
B4 | 0.012
B5 | 0.064
B6 | 0.09
B7 | 0.041
B8 | 0.01
B9 | 0.009
B10 | 0.018

The binders below were run against T5, GST-boxA(red), reduced form of A-box domain of HMGB1 with N-terminal GST tag (human, cysteines reduced) in the same assay as above.
T5 construct: Used biotinylated (b-GST-boxA(red)) in ELISA; also called b-GST-boxA(red)
Description: as §4, §5

Binder | Kd [µM]
B4 | 0.025
B5 | 0.11
B6 | 0.13
B7 | 0.067
B8 | 0.021
B9 | 0.017
B10 | 0.036

The binders below were run against T3, HMGB1(disulfide), disulfide linked form … in the same assay as above.
Description: as §4, §5

Binder | Kd [µM]
B4 | 0.17
B5 | 0.67
B6 | 1.5
B7 | 0.87
B8 | 0.13
B9 | 0.19
B10 | 0.15

Each binder was assayed against T1, HMGB1(red), fully reduced form of … (assay: cell-based or functional assay).

Binder | IC50 of inhibition of HMGB1 induced cell migration [µM]
B1 | ≤ 0.0001
B2 | > 0.001
B3 | > 0.001

Each binder was assayed against T3, HMGB1(disulfide), disulfide linked form … (assay: QCM (Attana A200); polypeptide captured on HSA, HMGB1(disulfide) injected; 1:1 or 1:2 model, average KD).
Description: as §1, §2, §3

Binder | Kd [µM]
B1 | 0.11
B2 | 0.031
B3 | 0.093

Each binder was assayed against T1, HMGB1(red), fully reduced form of … (assay: QCM (Attana A200); polypeptide captured on HSA, HMGB1(red) injected, 2 mM DTT; 1:1 or 1:2 model, average KD).
Description: as §1, §2, §3

Binder | Kd [µM]
B1 | 0.0042
B2 | 0.021
B3 | 0.15

— patent publication US20220389066A1 (Affibody, published 2022)
